Reference: the supplement of paper PMC10126150
Values marked as one replicate rest on one cluster of the flow cell; about a third of the high ones do not repeat.

Test system: ATP
Assay: switch fluorescence ratio, 500 uM ATP over buffer (Cy3 cluster intensity, sum of 5 cycles each) (fold (ratio)); higher = stronger signal-on switching upon ATP binding; sequences stand for … in TCGTCGGCAGCGTCAGATGTGTATAAGAGACAGTTTTTTTTTTTTTTTTTTTTTTTTT…TC
Conditions: aptamer strand: ATP DNA aptamer (quencher-CACCTGGGGGAGTATTGCGGAGGAAGG + anchor), 100 nM annealed; ATP concentration: 500 uM; one replicate
Method in brief: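 Imaging in selection buffer was followed by imaging after 15 min with 500 uM ATP at 22 °C, for Cy3-labelled switching-strand clusters annealed to 100 nM quencher-labelled ATP aptamer on a modified Illumina MiSeq flow-cell. Five of these buffer/ATP cycles ran, separated by NaOH stripping and re-annealing. The fluorescence ratio per cluster is summed target-cycle over summed buffer-cycle Cy3 intensity, averaged per switch-domain sequence; clusters outside 100-1000 RFU were removed.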
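Note: ATP exposure 15 min at 22 °C before imaging.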

Sequence | switch fluorescence ratio
TGCGTAATGG | 1.34
CGTTATGG | 0.962
CCAAGCAAAT | 4.44
CTTAGAGGGC | 0.971
AATATGGGAC | 1.03
GCTGGTACGG | 1.04
GAGTAGGGTG | 0.965
GGTGCTGGTA | 1.07
TCCTTGAGAC | 1.21
GGACTTGTGC | 0.972
TCTGCTAGGA | 1.04
GATGACGGAC | 1.14
AAATTTGAAC | 0.94
TACAGGCAGA | 1.01
GGGAATGGAC | 0.987
CAAAAGCAAG | 1.19
TTTTCGCTAC | 3.89
AACGAATACG | 1.05
GACAAGCGAG | 1.03
GGTTTGGTAC | 0.993
AAATGCGGGA | 1.02
TCCATAAGTT | 1.01
CTGGACGTTT | 0.951
AGAATTAGG | 0.932
CAACCTTCT | 2.68
CGGTCAAGCA | 0.979

Sequence | switch fluorescence ratio
AATTCGGTGT | 0.994
GCGTCCTATC | 1.04
GCCGAGAAGG | 1.02
ACTGGCTGCG | 0.982
CTTACTTATA | 1.01
ATTGTTCA | 1
TTAATAGGTA | 0.959
GGCTTATAAG | 0.952
AGGAGGGGAA | 1
ATACGCGGCG | 1.01
CGTTTTATAC | 1.44
CGCGACCTT | 1.1
ACTGATTA | 1.03
AGCACACT | 1.15
TACTAAAGGT | 1.19
AATAGTCGAT | 1.03
TCAATCCACT | 1.03
CTGTCTCATA | 1.01
TTGAGACAGT | 0.979
AGTAGGGATT | 1.2
TGATGCTGTG | 0.987
GAATACCATG | 0.989
TTGAGATCTG | 0.991
TGTATGCTGA | 0.943
AGACACGTT | 1.05
CTACAAGTTG | 0.988

Sequence | switch fluorescence ratio
TAGAGATTAT | 1.01
TTGCCCGGGG | 1.11
TCGAACGAAC | 1.23
ACCGATTACA | 1.03
AAGCAGGCGC | 0.968
CGAGAACTTA | 0.977
AACGGTTAGA | 1.04
TGAGGGAGAA | 1.02
TCGGAATAAT | 1.11
AAATTTAACT | 1
CGGATTCATC | 0.959
AGGCGACGGT | 0.989
CGGGGGTGAA | 1.01
CCGGTAAGCC | 1.19
ATCGCTGTAT | 1.02
CATAGGGAAA | 0.961
GACTGCGCTT | 1.49
TTAGGTTCCT | 1.06
ACCTTTCTAC | 1.65
TATTGGTATA | 1.04
GTATCCACTG | 0.988
TCAGGGAACT | 0.985
GTAGGGTTGC | 1.02
GGAACGTGCA | 0.918
GGCCCCCCCG | 1.59
GTTGCATTGT | 1.1

Sequence | switch fluorescence ratio
ACTGAAAACT | 1
CTGAGCAATT | 2.27
GCGGGGCGCT | 1.06
TTTAGATCAT | 1.01
CAGACTGTGG | 0.99
ATTGCTCGCT | 0.958
TTTAAAGGTC | 0.982
GCGACGGCGT | 1
AAAATTCGAT | 1.02
CGCGCCACGG | 1.09
CGTACGATAG | 1
CTGGCTCTGG | 0.998
TTTCACGCT | 1.04
CGGACACCTA | 1.1
ACAGAACGTG | 1.14
AACCTTTGGC | 1
ACTGCAGTGT | 0.983
GAGACTTAAT | 0.957
TTTCTGGATC | 1.01
TCCAATGATC | 1.1
GATTGTCACC | 1.02
AACCTAAAGG | 1.02
GCAAGGCTCG | 1.51
TGCTTCTCGC | 0.996
GTTGCAGGG | 0.986
GCTGACTACG | 1.04

Sequence | switch fluorescence ratio
CTAAATGTCT | 1
CAGCCAACCG | 1.05
ATTTATCATT | 0.993
GCGATTAATT | 1.01
AGGAGTCTAG | 0.976
CCATGGCAGA | 1.07
TAGGGAATGG | 1.06
AGCGCCGCG | 1.02
ATTTTTGTA | 0.971
TCTGGTATAT | 1.12
TGGTTCCGTC | 1.02
ATACGCTTAA | 1.14
CGTAAATG | 1.04
GTATAAGATG | 0.968
AAAACATAAG | 1
GCAGATGTTA | 1.04
TCATTAGGGC | 0.957
TAACCGGTTA | 0.975
CTTAGGCGAA | 0.963
TTTACTAAGA | 1.06
GGGGATCGGC | 0.951
ACTGTCATAA | 1.09
GTTTCAGTTT | 1.01
TCATTCTCG | 0.954
GTTTCAAGT | 1.01
TCTACAGAAC | 1.04

Sequence | switch fluorescence ratio
CAGCTCCGAG | 1.11
CACGACTGCG | 0.955
AAGGCAGCTT | 0.998
TCGCAGGTTG | 1.02
CGGTAATAGT | 1.14
AATCGGGACA | 1.01
TTTATAAGCT | 1.06
CTTGTATCTT | 1.01
TTTAAACGAA | 0.975
GATAGCCCAT | 0.992
AGTAAAGAAC | 1.06
TGATGAAGTA | 1.04
CATTCTGTTA | 0.988
TCAATCATTA | 1.04
GTCGCATGCC | 1.03
TTGATTAAGT | 0.968
GGGAGATG | 1
CCCTAGTTAT | 1.07
TTGGTGTACA | 0.929
CTACGCTATT | 5.33
GCTAAAGGCT | 0.975
CATCACAATC | 3.05
ATGATGGTC | 0.992
ACAGCAACTC | 2.17
TGGAGCGGCT | 0.953
AGCTACATCG | 1

Sequence | switch fluorescence ratio
TACAACCGAC | 1.9
AATATATCTC | 0.961
ACGTAGGAGA | 1.07
GATAACGCTA | 1.16
AATAGAAATT | 0.949
ATAACTACAC | 1.21
AGCCTCGCCG | 0.999
TCGCTAGTAT | 1.05
CATCGTCTGC | 1.02
ACAGGCCCAA | 1.03
GGCGCCCGTT | 0.996
TTATTAATAG | 0.954
TGGTACAAAT | 0.995
CGTACTTATG | 1.02
ATCAATAGGA | 0.92
GGTGTACTGG | 1.01
TAGATTTTGA | 1.01
GTGGGAATCC | 0.979
TAAGTAGTCC | 1.03
ACAGGCGTC | 1.04
GGCGATACCA | 1.02
GTCCTGCGGT | 0.997
GGATCGCTTT | 1.01
CTTGTCAAGG | 1.04
CTATGCTGCG | 1.01
AGGGGAACGA | 0.963

Sequence | switch fluorescence ratio
TTAATGCACG | 1.12
GACATAAGA | 0.983
CATACGGAGA | 1.07
GCGACTTTAC | 1.79
CATTAAGGCC | 1
ATTTCTAAAT | 1.02
CATGACAGTA | 1.12
TAAGGCGATC | 1.08
CATCTCAGA | 1.07
ACAATGGGCT | 0.983
CCGCTTATTA | 2.63
ATGGGACCAG | 1.02
ACGACAACTT | 1.3
TAAATTTCTT | 1.03
TTGTGCCGTT | 0.919
TACCGTGGCT | 0.98
GCAATATTAA | 1.17
CCAGCCACAG | 1.04
TGTGGGTTCG | 0.984
